# Several values for one entry are separate records, joined by “and”; a condition that tells them apart may be missing. Identical values can stand only once. The shares of active, inactive and inconclusive entries below differ from those in the screen. Potencies of inconclusive entries are doubtful fits and often do not repeat. A structure can be active in one record and inactive in another. Activity calls are given as the source filed them. The call rests on the fitted dose curve; in most records, active means well fitted activation curve with a large enough effect in the repeat runs; inconclusive means weak or mixed curves; inactive means flat fitted curve, though single readings scatter.
# Experiment: A CellTox Green Cytotoxicity Assay to monitor cytotoxicity in HEK293 cells - 8 hour (AID 1224884); further: nearly all actives have a fitted effect of over 35% in size
# Details: CellTox Green fluorescence; series mostly up to 76.8 µM
# Text: National Center for Advancing Translational Sciences [NCATS]
# NIH Chemical Genomics Center [NCGC]
# U.S. Environmental Protection Agency [EPA]
# National Institutes of Environmental Health Sciences [NIEHS]
# National Toxicology Program [NTP]
# Cell-based models are critical for drug discovery. Determining the natural cytotoxic effects resulting from test compounds is an essential research activity. A CellTox Green Cytotoxicity Assay to monitor cytotoxicity in real time of continues cell culture during 40 hours of the compound treatment was used to screen Tox21 10K library compounds in Hek293 cells. CellTox Green Cytotoxicity Assay is a nonlytic, homogeneous, biofluorescent method to measure cytotoxicity in cell culture after experimental manipulation. The assay system uses a proprietary asymmetric cyanine dye that is excluded from viable cells but preferentially stains the dead cell's DNA. […] Viable cells produce no appreciable increases in fluorescence. Therefore, the fluorescence signal produced by the binding interaction with dead cell DNA is proportional to cytotoxicity.
# The mixture of Hek293 cell suspension and reagents were dispensed at 600cells/6 ul/well in 1536-well tissue culture treated black solid bottom plates using a Multidrop dispenser. After the assay plates were incubated at a 37 C/5% CO2 incubator for 5 hours, 23 nL of compounds dissolved in DMSO, positive and negative controls was transferred to the assay plate by a pintool work station. The plates were incubated at 37 C for 40 hours. The fluorescence intensity were measured at 0h, 8h, 16h, 24h, 32h and 40h time points using ViewLux plate reader during compound treatment.
# Potency means the concentration at half of the fitted maximal effect; tags describe the fitted curve by direction and shape.
row,SMILES,Potency
1,NC1(c2ccc(-c3nc4ccn5c(=O)[nH]nc5c4cc3-c3ccccc3)cc2)CCC1,"inconclusive: 26.8 µM [activator, single point]"
2,CCCCCCCCCCCCc1ccc(O)cc1,"inconclusive: 54.9 µM [activator, single point]"
3,CN(C[C@@H](CC[N+]12CCC(C3CCCCC3)(CC1)CC2)c1ccc(Cl)c(Cl)c1)C(=O)c1cc(C(F)(F)F)cc(C(F)(F)F)c1,active: 43.6 µM
4,CCc1cc(Cc2cc(CC)c(N)c(CC)c2)cc(CC)c1N,"inconclusive: 43.6 µM [activator, partial curve, poor fit]"
5,CCCCc1oc2ccccc2c1C(=O)c1cc(I)c(OCCN(CC)CC)c(I)c1,"inconclusive: 39.2 µM [activator, single point]"
6,CN1CCN(CCCN2c3ccccc3Sc3ccc(C(F)(F)F)cc32)CC1,active: 23.9 µM
7,COc1cc(/C=C/C(=O)CC(=O)/C=C/c2ccc(O)c(OC)c2)ccc1O,active: 49.3 µM
8,C/C=C/C(=O)Oc1c(CCCCCC(C)C)cc([N+](=O)[O-])cc1[N+](=O)[O-],"inconclusive: 54.9 µM [activator, single point]"
9,CN(C)C(=O)C1(N2CCCCC2)CCN(CC[C@@]2(c3ccc(Cl)c(Cl)c3)CN(C(=O)c3ccccc3)CCO2)CC1,"inconclusive: 51.3 µM [activator, single point]"
10,O=C1CCCCCCCCCCCCCC1,"inconclusive: 43.6 µM [activator, partial curve]"
11,c1ccc2n[nH]nc2c1,active: 9.5 µM
12,CC(C)CCCCCCc1ccc(O)cc1,"inconclusive: 43.6 µM [activator, partial curve, poor fit]"
13,CCCCCCCCCCCCCCCCCCNC(=O)OC1CCN(C(=O)OC[C@H](COC(=O)N(Cc2cccc[n+]2CC)C(=O)c2ccccc2OC)OC)CC1,active: 26.8 µM
14,Oc1ccc(-c2ccccc2)c(Cl)c1,inactive
15,CC(C)(C)c1cccc(C(C)(C)C)c1O,"inconclusive: 53.7 µM [activator, single point]"
16,CCCCCCCCCCCCCC[P+](CCCC)(CCCC)CCCC,active: 17.3 µM and active: 21.9 µM
17,O=c1[nH]sc2ccccc12,"inconclusive: 61.6 µM [activator, single point]"
18,CCC(C)(C)c1ccc(CC(C)CN2C[C@@H](C)O[C@@H](C)C2)cc1 (stereo not given in full),"inconclusive: 26.8 µM [activator, single point]"
19,CCCCCCCCCCCCc1ccccc1O,"inconclusive: 43.1 µM [activator, partial curve] and inconclusive: 5.49 µM [activator, full curve, poor fit]"
20,O=c1cc(-c2ccccc2)oc2ccccc12,"inconclusive: 21.7 µM [activator, single point]"

row,SMILES,Potency
1,CCCCCCOC(=O)c1ccc(O)cc1,"inconclusive: 61.7 µM [activator, single point]"
2,CCCCCCCCCOC(=O)c1ccc(O)cc1,"inconclusive: 54.2 µM [activator, single point]"
3,Cc1cc2nc3c(=O)[nH]c(=O)nc-3n(C[C@H](O)[C@H](O)[C@H](O)CO)c2cc1C,active: 43.2 µM and active: 40.5 µM and active: 11.7 µM
4,CC[C@H](c1ccc(O)cc1)[C@@H](CC)c1ccc(O)cc1,"inconclusive: 54.9 µM [activator, single point]"
5,CCOc1ccc([N+](=O)[O-])cc1,"inconclusive: 49.7 µM [activator, single point]"
6,C=C(C)C(=O)OCCC[Si](OC)(OC)OC,"inconclusive: 61 µM [activator, single point]"
7,COc1cc(-c2nc(NC(=O)c3cc4cc(C)cc(C)c4n3CC(=O)O)sc2CCC2CCCCC2)c(OC)cc1Cl,"inconclusive: 50.4 µM [activator, single point]"
8,CCCCC(CC)COC(=O)CC(C(=O)OCC(CC)CCCC)S(=O)(=O)O (stereo not given),"inconclusive: 23.6 µM [activator, partial curve, poor fit]"
9,Oc1ccc(Cl)cc1C1CCCC1,"inconclusive: 54.9 µM [activator, single point]"
10,OCCO,"inconclusive: 60 µM [activator, single point]"
11,OC1(c2ccc(Cl)c(C(F)(F)F)c2)CCN(CCCC(c2ccc(F)cc2)c2ccc(F)cc2)CC1,active: 21.3 µM
12,O=C(Nc1ccccc1)c1cc(Cl)ccc1O,"inconclusive: 61.6 µM [activator, partial curve, poor fit]"
13,CN1CCN(c2ccccc2/C=C2\SCCN(c3ccc(Cl)c(Cl)c3)C2=O)CC1,"inconclusive: 24.5 µM [activator, partial curve]"
14,CC(C)(C)c1ccc(C(=O)CCCN2CCC(OC(c3ccccc3)c3ccccc3)CC2)cc1,"inconclusive: 21.3 µM [activator, partial curve, poor fit]"
15,CN[C@H]1CC[C@@H](c2ccc(Cl)c(Cl)c2)c2ccc(S(N)(=O)=O)cc21,active: 54.9 µM
16,CCCCC(CC)COS(=O)(=O)O (stereo not given),inactive
17,CCN=C1C=CC(=C(c2ccc(N(CC)CC)cc2)c2ccc(N(CC)CC)cc2)c2ccccc21,"inconclusive: 21.7 µM [activator, single point]"
18,Clc1nc(C(Cl)(Cl)Cl)c(Cl)c(Cl)c1Cl,"inconclusive: 61.6 µM [activator, partial curve, poor fit]"
19,COc1ccc(C(Cl)=C(c2ccc(OC)cc2)c2ccc(OC)cc2)cc1,active: 43.6 µM
20,[O-][n+]1ccccc1SSc1cccc[n+]1[O-],active: 10.4 µM
